From PubChem BioAssay AID485344 (National Center for Advancing Translational Sciences (NCATS), 2010) come the findings set out here.

Each structure is given as a SMILES string. The campaign covered roughly 340,000 compounds. About 6,900 (2%) were called active. Cut-off read from the data, not from the text of the source: active = inhibition above about 30%; inactive = below that, where a call was filed. This is a selection; strong and weak results do not stand in their true shares. The source gives no active or inactive call for entries shown without one.

This test addresses D(2) dopamine receptor (Homo sapiens) (UniProt P14416). Nature of the test: HTS Assay for Allosteric Antagonists of the Human D2 Dopamine Receptor: Primary Screen for Antagonists. Note: 0% is about no effect. As to conditions: HEK293 TREx D2 cells, calcium flux, dopamine EC80; at 10 µM; stronger effect = higher value. An outline of the steps: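 Inhibition of EC80 dopamine-driven calcium flux, recorded kinetically, defines activity here; cells are a tetracycline-induced HEK293 T-REx line expressing force-coupled D2.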
UniProt P14416, sequence (P14416 whole entry, looked up): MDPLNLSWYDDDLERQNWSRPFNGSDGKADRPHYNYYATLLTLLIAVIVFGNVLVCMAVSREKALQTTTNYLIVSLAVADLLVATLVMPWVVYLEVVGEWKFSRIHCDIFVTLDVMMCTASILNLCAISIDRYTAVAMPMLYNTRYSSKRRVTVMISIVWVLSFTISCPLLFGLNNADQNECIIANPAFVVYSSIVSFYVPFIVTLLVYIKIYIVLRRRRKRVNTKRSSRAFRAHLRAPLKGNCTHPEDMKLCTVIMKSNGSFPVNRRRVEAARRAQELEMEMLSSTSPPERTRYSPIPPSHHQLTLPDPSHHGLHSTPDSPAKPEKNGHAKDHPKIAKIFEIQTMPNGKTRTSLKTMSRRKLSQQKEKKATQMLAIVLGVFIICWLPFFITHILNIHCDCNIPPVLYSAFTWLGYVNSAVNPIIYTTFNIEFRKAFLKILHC
For the compound `CCN(CC)c1ccc(NC(=O)c2c(OC)cccc2OC)c(C)c1`, the inhibition was active: 33.6%.
Then `COC(=O)c1cc(Cl)ccc1NC(=O)Cn1c(C)cc(C)c(C#N)c1=O`, with 17.3%; and `CC(C)NC(=O)c1nn(C)c2c1CS(=O)(=O)c1ccccc1-2`, with -27.7%.
In the case of `CC(=O)Nc1ccc2nc(SCc3ccccc3)sc2c1` it was 6.69%.
Then `Clc1ccc(CN2CCc3nc(Nc4ccc5c(c4)OCCO5)ncc3C2)cc1`, with 7.75%; and `COc1ccccc1CNc1nc(-c2ccco2)nn1S(=O)(=O)c1ccc(C)cc1`, with -5.85%; and `CCOc1ccccc1CN(CCc1ccc2c(c1)OCO2)Cc1cc(OC)c(OC)cc1OC`, with -12.4%.
As to `CCc1ccc(Sc2cc(C(=O)NCCCN3CCCC(C)C3)c3ccccc3n2)cc1` (stereo unspecified), the inhibition is 12.3%.
In the case of `Cc1ccc(NC(=O)CN2CCN(C3CCCCC3)C(=O)C2=O)cc1` it was -23%.
Then `Cc1ccccc1CCNCc1c(C(=O)O)c(C)n(Cc2c(F)cccc2Cl)c1C`, with -5.7%.
In the case of `O=c1cc(COc2cccc(C(F)(F)F)c2)nc2sc3c(n12)CCCC3` it was -11.2%.
On to `Cc1ccc(-n2ncc(C(=O)N3CCN(C4CCCCC4)CC3)c2C2CCN(C(=O)OC(C)(C)C)CC2)cc1`, for which the inhibition was -4.89%.
Turning to `Cc1c(Cl)cccc1NC(=O)CN1C(=O)CSc2ccc(S(=O)(=O)N3CCCC3)cc21`, the inhibition is -6.02%.
In the case of `COc1ccccc1/C=C/c1nc(C#N)c(NC(C)c2ccccc2)o1` (stereo unspecified) it was -6.01%.
Take `CC(=O)c1ccc(N2CCN(C(=O)Cn3ncc4c3-c3ccccc3OC4)CC2)cc1`: the inhibition is -11%.
Then `CCOc1ccc(NC(=O)c2cnn3c(C(F)F)cc(-c4ccc(C)cc4)nc23)cc1`, with 4.12%; and `CC(=O)c1cc(-c2ccc(F)cc2)n(CCC(=O)NCc2ccc(C)cc2)c1C`, with 0.253%; and `O=C(Nc1cccc(C(=O)N2CCN(c3ccc(F)cc3)CC2)c1)c1nsc2ccccc12`, with -7.29%.
In the case of `Cc1oc2ccc(O)c(CN3CCN(Cc4ccccc4)CC3)c2c1C(=O)Nc1cccc(Cl)c1C` it was -2%.
In the case of `CCOC(=O)c1c(NC(=O)c2ccc(S(=O)(=O)N(C)C)cc2)sc2c1CCN(C)C2` it was 14.3%.
Turning to `COc1cc(CNc2cccc(C(=O)O)c2)cc(Br)c1OCC(=O)NC(C)(C)C`, the inhibition is active: 59.7%.
In the case of `CCc1ccc(-c2cc(C)no2)cc1S(=O)(=O)NCCc1ccccc1` it was active: 30.4%; in that of `CCCCCCNc1ncnc2c1sc1nc(N3CCOCC3)c3c(c12)CCCC3`, -5.9%.
Then `COc1ccc(NC(=O)Cn2c(=O)n(CC3CCCO3)c(=O)c3ccccc32)cc1` (stereo unspecified), with -3.08%.
Then `CCCCSCCCNC(=O)c1cc(-c2cccnc2)nc2ccc(S(=O)(=O)N3CCC(C)CC3)cc12`, with 7.22%.
With `COc1cccc(/C=N/NC(=O)CN2CC(c3ccccc3)CC2=O)c1OC` (stereo unspecified), the inhibition was active: 38.1%.

What is called inhibition is the change of the read-out against control, counted positive when it falls.
